# Where “and” joins values, the source holds several entries; their conditions need not be identical. Identical values can stand only once. The whole screen tested about 420,000 compounds, of which about 64,000 (15%) were called active. The inconclusive results got no clear call from the source; some entries with a clear call stand among them for comparison. Calls come from the whole dose curve; as a rule, active = well fitted inhibition curve with a large enough effect; inconclusive = small, poorly fitted or top-dose-only effect; inactive = flat fitted curve, though single readings scatter. No potency is given beside an inconclusive call; the fits are too rough.
# Test: qHTS for Inhibitors of human tyrosyl-DNA phosphodiesterase 1 (TDP1): qHTS in cells in absence of CPT; note: nearly all actives have a fitted effect of over 55% in size
# Settings: DT40 Tdp1-/- hTDP1 cells, no CPT, ATP luminescence, 48 h; activity change, negative = growth inhibition: at 46.2 µM (top of the series) unless noted
# Method in brief: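 Readout: luminescence from CellTiter-Glo after 30 min in the dark at RT. Cells: DT40 Tdp1-/- with stable hTDP1, 400/well. Exposure: compounds alone, ≥48 hr, 37 °C.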
# % is set by controls: 0 for no effect and ±100 for the full control effect; potency is the fitted concentration of half-maximal effect; tags give direction and shape of the fitted curve.
Compound,Potency,"activity change, negative = growth inhibition"
CCOC(=O)c1c(NC(=O)C2COc3ccccc3O2)sc(C)c1C (centres undefined),"inconclusive [inhibitor, single point]",
CCN(CC)C(=O)Nc1ccc2c(c1)N(Cc1ccccc1)C(=O)c1ccccc1S2,"inconclusive [inhibitor, single point]",
CCOC(=O)c1c(C)[nH]c(C)c1S(=O)(=O)NCC(=O)N1CCN(c2ccccc2OC)CC1,,inactive: -18.6%
COc1ccc(OC)c(S(=O)(=O)NCCc2csc(-c3cccc(F)c3)n2)c1,"inconclusive [inhibitor, single point]",
COc1cccc(/C(O)=C/c2nc3ccc(C(=O)NCCc4ccc(Cl)cc4)cc3[nH]c2=O)c1,active: 6.51 µM,
Cc1ccc(-c2nn3c(C)nnc3s2)cc1NC(=O)c1ccc(-c2cccc(Cl)c2)o1,active: 10 µM and active: 18.4 µM,
O=c1cc(/N=C/c2coc3c(ccc4ccccc43)c2=O)[nH]c(=S)[nH]1,"inconclusive [inhibitor, partial curve]",
N#CCCC(CCC#N)C1=NCCc2ccccc21,,inactive: 18.9%
CCCCNC(=O)CN(c1cc(C(F)(F)F)ccc1Cl)S(C)(=O)=O,"inconclusive [inhibitor, single point]",
C=CCn1c(C)cc(C(=O)CN2C(=O)NC3(CCCc4ccccc43)C2=O)c1C (centres undefined),"inconclusive [inhibitor, partial curve]",
CC1(C)CC2(C)CC(=O)C1C(C(=O)O)C2C(=O)O (centres undefined),,inactive: 6.1%
COc1cc(C(=O)NC(c2ccc(Cl)cc2)c2cc(Cl)c3cccnc3c2O)cc(OC)c1OC (centres undefined),active: 5.17 µM,
CC1CCC(NC(=O)c2cc3c(s2)CCCC3)CC1 (centres undefined),"inconclusive [inhibitor, partial curve]",
COc1ccc(CN2CCC3(CC2)c2ccccc2[C@@H](NC(=O)c2ccsc2)[C@@H]3OC)cc1O,,inactive: -16.7%
Cc1ccc(Cc2c(C(C)(C)C)nc3cc(C)c(Br)c(C)n23)cc1,"inconclusive [inhibitor, single point]",
CN(CCCNC(=O)c1cccn2c(=O)c3ccccc3nc12)Cc1ccccc1,"inconclusive [inhibitor, single point]",
CC1S/C(=C(\C#N)C(N)=O)N(c2ccc(F)cc2)C1=O (centres undefined),,inactive: -0.809%
c1ccc(C2(c3ccccc3)OCC(Cn3cncn3)O2)cc1 (centres undefined),"inconclusive [inhibitor, single point]",
CCOc1ccccc1NC(=O)C(CC)n1c(C(=O)OC)cc2occc21 (centres undefined),"inconclusive [inhibitor, single point]",
O=C1NC(=O)/C(=C\c2ccc(O)cc2O)S1,"inconclusive [inhibitor, single point]",
COc1ccccc1CNC(=O)C1(NC(=O)Nc2ccc(C)cc2)CCCCC1,"inconclusive [inhibitor, single point]",
COc1ccc(CN2C[C@@H](CO)O[C@@H](n3cnc4c(NC5CC5)ncnc43)C2)cc1,"inconclusive [inhibitor, single point]",
O=C1C2C3C=CC(C4CC34)C2C(=O)N1/N=C/c1cccs1 (centres undefined),,inconclusive: -30.1% [inhibitor]

Compound,Potency,"activity change, negative = growth inhibition"
CCOC(=O)N1CCN(S(=O)(=O)c2ccc(C(=O)NNc3nc4ccc(Cl)cc4s3)cc2)CC1,active: 20.6 µM,
CC(CCc1ccccc1)NC(=O)CNc1cccc([N+](=O)[O-])c1 (centres undefined),"inconclusive [inhibitor, partial curve, poor fit]",
N#Cc1c(SCC(=O)Nc2cccc(C(F)(F)F)c2)sc2c(O)cc(=O)[nH]c12,,inactive: 1.02%
COc1cccc(CNS(=O)(=O)c2cc(CN3C(=O)c4cccnc4C3=O)ccc2OC)c1,,inactive: 0.392%
Cn1c(=O)c2c(-c3ccccc3)n(-n3cnnc3)cc2n(C)c1=O,"inconclusive [inhibitor, single point]",
CN1Cc2cccc3c2C(Cc2ccccc2S3)C1 (centres undefined),"inconclusive [inhibitor, partial curve, poor fit]",
Cc1cc(C)nc(NC(N)=NCCc2c[nH]c3ccccc23)n1,active: 9.2 µM,
N#Cc1ccc(C(=O)N2CCC3CC2c2cc(-c4ccc(F)cc4)ccc23)cc1 (centres undefined),"inconclusive [inhibitor, single point]",
COc1ccc(C(NC(C)=O)c2ccc3cccnc3c2O)cc1OC (centres undefined),active: 6.31 µM,
CC(CNC(=O)c1ccccc1Cl)NC(=O)c1ccccc1Cl (centres undefined),,inactive: -24.4%
COc1ccc(NC(=O)C2CCN(S(=O)(=O)c3c(C)noc3C)CC2)cc1OC,"inconclusive [inhibitor, full curve]",
O=C(Cn1c(CO)nc2ccccc21)Nc1cc(C(F)(F)F)ccc1N1CCOCC1,"inconclusive [inhibitor, partial curve]",
COCCC(=O)N1CCC(Oc2ccc(C(=O)NC3Cc4ccccc4C3)cc2)CC1,"inconclusive [inhibitor, single point]",
O=C1c2cccc3cccc(c23)C(=O)N1c1nncs1,"inconclusive [inhibitor, partial curve]",
COc1ccc(Nc2oc(/C=C/c3cccc(OC)c3)nc2C#N)cc1,"inconclusive [inhibitor, single point]",
COc1ccc(N(C(=O)/C=C\C(=O)Nc2ccc(C)cc2)C(C(=O)NCc2ccco2)c2ccc(C)cc2)cc1 (centres undefined),active: 4.11 µM,
Cc1c(C(=O)N2CCCCCC2)c(S(=O)(=O)N(Cc2ccccc2)C(C)(C)C)c(C)n1C,active: 20.6 µM,
CCCN(CC(=O)Nc1ccccc1C)C(=O)c1cccc(S(=O)(=O)N2CCN(c3ccccc3)CC2)c1,"inconclusive [inhibitor, single point]",
Cc1ccccc1-n1ncc2c1CC(C)(C)CC2NC(=O)CSc1ccncc1 (centres undefined),active: 16.4 µM,
COc1ccc(-c2cc(C(=O)N3CCCC3)no2)cc1,"inconclusive [inhibitor, partial curve]",
Cc1cccc(N2CCN(C(=O)CC(NC(=O)c3ccccc3)c3ccccc3)CC2C)c1 (centres undefined),active: 29.1 µM,
Cc1ccc2cccc(OC(=O)c3ccc4c(c3)OCCO4)c2n1,"inconclusive [inhibitor, single point]",
Cn1nccc1C(=O)N1CCOCC1,,inactive: 24.8%

Compound,Potency,"activity change, negative = growth inhibition"
CN(CCOc1ccc(-c2ccn(S(=O)(=O)c3ccc(Cl)cc3)n2)cc1)c1ccccn1,"inconclusive [inhibitor, single point]",
COc1cc(Nc2ccn3nc(-c4ccc(F)cc4)cc3n2)cc(OC)c1OC,"inconclusive [inhibitor, partial curve]",
CC[C@H](C)C(N)c1cn([C@@H](CC(N)=O)C(=O)N2CCNCC2)nn1 (some centres undefined),,inactive: 8.79%
O=c1c(/C=N/OCc2ccc(Cl)cc2Cl)c[nH]n1-c1cccc(Cl)n1,"inconclusive [inhibitor, single point]",
Cc1ccc(-n2ncc3c(=O)n(Cc4ccccn4)cnc32)cc1C,,inconclusive: -33.1% [inhibitor]
O=C(COC(=O)CN1C(=O)c2ccccc2C1=O)Nc1ccccc1C(F)(F)F,,inactive: -14.2%
COc1ccc(OC)c(S(=O)(=O)N2CCC(C(=O)Nc3cccc(C)c3)CC2)c1,"inconclusive [inhibitor, partial curve, poor fit]",
COc1ccc(C(=O)Cn2nnc(-c3cccs3)n2)cc1,"inconclusive [inhibitor, partial curve]",
CCS(=O)(=O)N1CCC(N2CCN(c3ccccc3)CC2)CC1,,inactive: -2.72%
COc1ccc(C(C)=O)cc1COc1cccc2cccnc12,"inconclusive [inhibitor, single point]",
COC(=O)c1ccc(C)c(-n2c(C)cc(C=O)c2C)c1,"inconclusive [inhibitor, single point]",
COc1ccc2c(c1)-c1c(ssc1=S)C(C)(C)N2C(=O)CSC1=NCCS1,active: 23.1 µM,
C=CCN(CC=C)c1cnn(-c2nc3ccccc3[nH]2)c(=O)c1Cl,,inconclusive: -33.7% [inhibitor]
CCOc1ccc(NC(=O)c2ccco2)c([N+](=O)[O-])c1,"inconclusive [inhibitor, single point]",
COc1ccc(CCNC(=O)CNS(=O)(=O)c2ccc(Br)cc2)cc1,"inconclusive [inhibitor, single point]",
CC(=O)Cn1cnc2c(cnn2-c2ccc(C)c(C)c2)c1=O,"inconclusive [inhibitor, single point]",
CC1CCCC(C)N1C(=O)COC(=O)c1cc(S(=O)(=O)N2CCOCC2)ccc1Cl (centres undefined),"inconclusive [inhibitor, single point]",
O=C(COc1ccccc1)NCc1nnc2c3ccccc3c(-c3ccccc3)nn12,"inconclusive [inhibitor, single point]",
Cc1nc2ccccn2c1C(=O)NC1CCCCC1,,inactive: -17.6%
CC(C)(C)[C@H]1COC(=O)CCC/C=C/C[C@H](CC(=O)N(CCO)Cc2ccccc2)C(=O)N1,"inconclusive [inhibitor, single point]",
C[C@H]1CN([C@@H](C)CO)C(=O)CCCn2cc(nn2)CO[C@@H]1CN(C)C(=O)CCC(F)(F)F,,inconclusive: -18% [inhibitor]
CC(=O)N(c1ccc2oc(=O)sc2c1)S(=O)(=O)c1ccccc1,active: 10.3 µM,
CCN1CCN(CCCNC(=O)c2ccc3c(Cl)c4c(nc3c2)CCCC4)CC1,active: 18.4 µM,
